According to the supplement of paper PMC11417369:
The list shows a part of the results.

The sequences below were run on PfHDP1 homeodomain (GST-tagged) (assay: gcPBM binding intensity (ln(normalized median fluorescence intensity)); higher = stronger DNA binding).
Outline: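 The binding buffer was 1× PBS containing 1% milk, 0.2 mg/ml BSA, 0.5% salmon testes DNA and 0.03% Triton X-100. In it, GST-tagged P. falciparum DNA-binding domains expressed in E. coli were applied for 1 h to an Agilent 4 × 180k array of primer-extended double-stranded 36-bp intergenic genomic probes plus negative controls. Binding intensity, read with Alexa488 anti-GST antibody and a 488 nm scan, is the highest Masliner-normalised natural-log median intensity across replicate spots of either probe orientation.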

| Sequence | gcPBM binding intensity (ln) |
| --- | --- |
| TAAAAATGTGGACACACACACATATATATATTTAAT [CACACA_site4941] | 6.52 |
| TTTCTAATTATTTCCCTTCAAATATATTAATATCGT [CACACA_negctrl_site429] | 6.64 |
| ATATATATTATTATATGTACATATAAATATATTAAT [XGTACX_site5270] | 6.45 |
| TTAGTATATACATTTGCACACATTATTTTTTAACAT [CACACA_site2618] | 10.5 |
| ATATTGTAAGTAAAATGTAATAAATATAATAAAATA [CACACA_negctrl_site697] | 6.4 |
| AAAAGGAAAATACTAGCACACAATATATAATAAACA [CACACA_site285] | 6.73 |
| TCCTTGCATTTTAAAACACACAAAAATTAATTGTTA [CACACA_site7152] | 7.01 |
| TCATTAATATTTCATAGTACAATTTTGTCTAATTGT [XGTACX_site6720] | 6.29 |
| TTATATTATACATACACACCCATATAACATGTTTTT [CACACA_site6539] | 7.17 |
| AATGGAAAAAAAAAAATAAATACAAATAAATACAAA [GTGCAC_negctrl_site407] | 6.43 |
| TATTTTTTTCTTACTACACACATATATATGCTTTCC [CACACA_site4058] | 7.15 |
| ATAATAATATTGTGTACACAATAATTTGTCAAATCA [CACACA_site6019] | 6.96 |
| ACATATACAAGACACACACACAACGTTTTAATAAAT [CACACA_site7017] | 6.96 |
| AAAAAAAAAAAAAAATGTACATATATATATATATAT [XGTACX_site876] | 9.34 |
| AAGGAATATGTATATACACACAGGTACATATATATA [CACACA_site441] | 6.72 |
| AAAAAATAATAATAATGTACAAATAAAATAAAAACA [XGTACX_site6568] | 6.74 |
| ATATATTTTTACCATACACACATATAATAAATATAT [CACACA_site3722] | 6.94 |
| TCGTGTGAAAATATTACACACATTTACTATAGTATC [CACACA_site7590] | 6.65 |
| ATAAAAATTGAAACATGTACACATATTCATTTTATA [XGTACX_site7968] | 6.01 |
| ATTATAAATTAAAATACACACATATATACCTAATAT [CACACA_site5541] | 6.56 |
| AGAATAAAAATACAAGCACACATGTATGAAATATAT [CACACA_site3213] | 6.72 |
| ATATATAATTACACAAATAAAAAAATAAAATGAAAT [CACACA_negctrl_site1513] | 6.61 |
| ATCATGTTATATATGTGTACATATATATGATATAAT [XGTACX_site991] | 6.46 |
| TGAACAATGTATAATTGTACGCAACGAAAATAAAAA [XGTACX_site1559] | 6.98 |
